Test results from PubChem BioAssay AID488969 (Vanderbilt High Throughput Screening Facility, 2010).
In all, about 110,000 compounds were measured (“z-score”: median about -0.1, highest 2% from about 2 on). The list shows a part of the results.

Each compound was assayed against Metabotropic glutamate receptor 8 (Rattus norvegicus) (UniProt P70579) (assay: mGluR8 Gi/Go-coupled signaling modulation – cell-based, rat, thallium flux, HTS, primary screen (AID 488969)). Details: HEK293 rat mGluR8, GIRK (G protein-gated inwardly rectifying potassium channel) thallium flux, FluoZin2; at 10 µM; stronger effect = higher value; submaximal glutamate (EC20) added with thallium.
Sequence of UniProt P70579 (P70579 whole entry, looked up): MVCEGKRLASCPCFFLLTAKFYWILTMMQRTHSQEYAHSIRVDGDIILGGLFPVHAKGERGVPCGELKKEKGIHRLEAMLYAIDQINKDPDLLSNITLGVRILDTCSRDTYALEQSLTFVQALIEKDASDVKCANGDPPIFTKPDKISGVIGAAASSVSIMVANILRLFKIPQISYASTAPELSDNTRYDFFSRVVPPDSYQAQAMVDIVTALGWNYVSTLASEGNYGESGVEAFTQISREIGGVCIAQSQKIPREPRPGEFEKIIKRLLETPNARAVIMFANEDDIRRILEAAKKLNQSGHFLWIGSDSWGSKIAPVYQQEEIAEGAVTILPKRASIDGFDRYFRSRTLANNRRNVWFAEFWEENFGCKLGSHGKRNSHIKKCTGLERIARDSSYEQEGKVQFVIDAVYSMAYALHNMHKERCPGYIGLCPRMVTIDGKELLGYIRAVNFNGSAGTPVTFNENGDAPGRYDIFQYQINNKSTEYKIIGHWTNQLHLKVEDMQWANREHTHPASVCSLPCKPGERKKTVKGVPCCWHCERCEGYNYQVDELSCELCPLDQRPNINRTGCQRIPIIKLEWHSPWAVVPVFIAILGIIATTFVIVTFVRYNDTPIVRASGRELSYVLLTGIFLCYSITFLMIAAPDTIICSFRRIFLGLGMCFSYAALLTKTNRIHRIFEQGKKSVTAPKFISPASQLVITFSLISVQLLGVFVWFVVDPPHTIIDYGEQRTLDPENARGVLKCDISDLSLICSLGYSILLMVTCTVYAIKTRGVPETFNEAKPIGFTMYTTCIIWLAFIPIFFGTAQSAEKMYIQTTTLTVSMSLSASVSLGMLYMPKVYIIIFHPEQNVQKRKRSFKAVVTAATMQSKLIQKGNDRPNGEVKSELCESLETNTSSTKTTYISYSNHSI

SMILES	z-score
Cc1ccc(NC(=O)c2cc3c(s2)CCC3)cc1S(=O)(=O)N1CCOCC1	0.275
Nc1nc(Cl)cc(Sc2ccc(F)cc2)n1	-0.168
Cc1ccc(Nc2cc(C)nc(N3CCOCC3)n2)c(C)c1	-0.396
COC(=O)c1ccccc1NC(=O)Cn1nc2n(C)c3ccccc3n2c(=O)c1=O	-0.846
O=C(COC(=O)c1ccc(O)cc1)Nc1ccc(N2CCCCC2)cc1	0.457
Cc1ccc(/C=N/NC(=O)CSc2nnc(-c3ccccc3)n2-c2ccc(Cl)cc2)o1	-0.309
Cc1nc([N+](=O)[O-])c(Sc2nc3ccccc3n2C)n1Cc1ccccc1	-0.352
CCOC(=O)C(=O)Nc1ccc([N+](=O)[O-])cc1OC	-0.295
O=C(NC1CCCCC1)C(c1ccc(F)cc1)N(Cc1ccco1)C(=O)CN1C(=O)c2ccccc2S1(=O)=O (stereo not given)	-0.0257
COc1ccc(-c2cc(C3CCN(c4ccc(C(C)=O)cc4[N+](=O)[O-])CC3)[nH]n2)cc1	0.0382
O=C(N1CCOCC1)N1CCN(S(=O)(=O)c2ccccc2)C1	0.354
CNC(=S)N/N=C(\C)c1ccc(C)c(C)c1	1.2
CCSC(=O)NC12CC3CC(CC(C3)C1)C2	-0.316
CCc1cc(=O)oc2cc3occ(-c4ccc(OC)c(F)c4)c3cc12	0.111
CCOc1cc(N2CCOCC2)c(OCC)cc1NC(=O)COC(=O)c1cccc2ccccc12	-0.0215
CSC1=C(C#N)C(c2ccc(C(C)C)cc2)CC(=O)N1 (stereo not given)	-0.0762
Cc1nc(CC(=O)O)c(-c2ccccc2)s1	-0.143
O=C(Oc1ccccc1-c1nnco1)c1ccc(Cl)cc1	-0.599
C=C(C)c1cccc(C(C)(C)NC(=O)N2CCCCC2CC)c1 (stereo not given)	-0.061
O=C(CNC(=O)c1ccco1)OCC(=O)c1ccc2ccccc2c1	-0.102
COc1ccc(CN2CCN(S(=O)(=O)c3ccc(F)cc3)CC2)c(OC)c1OC	-0.157
CCOC(=O)N1CCC(NC(=O)c2cc(C(=O)Nc3ccc(F)cc3F)ccc2CO)CC1	0.353
CS(=O)(=O)N1CCN(c2ccccc2NC(=O)c2ccc(-c3ccc(Br)cc3)o2)CC1	-0.158
O=C(COC(=O)CCSc1ccc(Cl)cc1)Nc1ccc(F)cc1	-0.137
O=C(CC1S/C(=N/N=C/c2cccs2)NC1=O)Nc1ccc(Cl)c(Cl)c1 (stereo not given)	0.218
CCOC(=O)C1CN(S(=O)(=O)c2ccc(OC)cc2)c2cc(CC(=O)OC)ccc2O1 (stereo not given)	-0.284
CCCC(=O)C1=C(O)C(C(=O)OC)C(C)(C)CC1=Nc1ccc(N)cc1 (stereo not given)	-0.0627
Cc1ccc(C(=O)C2=C(O)C(=O)N(CCN(C)C)C2c2ccccn2)o1 (stereo not given)	-0.614

SMILES	z-score
COc1cc(Cl)c(S(=O)(=O)n2cnc(C)c2)cc1Cl	-0.158
CCCCCc1c(O)nc(SCC(=O)NCC2CCCO2)[nH]c1=O (stereo not given)	-0.24
Cc1cccc(NS(=O)(=O)c2cc(C(=O)NCCC3=CCCCC3)ccc2Cl)c1	0.335
COc1ccc2oc(C(=O)C3CC3)c(N)c2c1	1.19
COc1cccc(N/C=C/C(=O)c2ccc(Br)cc2)c1	-0.103
Cc1cc(C)nc(SCc2cc(=O)c(OC(=O)c3cccc([N+](=O)[O-])c3)co2)n1	-1.2
CCOc1c2ccc(C(=O)N[C@H](C)C3CCCCC3)cc2nn1CCOC	-0.0882
COCCNC(=O)COc1ccc(Nc2ccccc2)cc1	-0.348
Cc1cccc2c(=O)cc(C)n(Cc3ccccc3)c12	-0.148
Cc1nc2c(C)cccc2cc1C(=O)N/N=C/c1ccc(N(C)C)cc1	-0.9
CCCCCC(=O)Nc1nc(C)c(-c2csc(Nc3cc(Cl)ccc3C)n2)s1	-0.0486
COc1ccc(-c2nnc(-c3ccc(Br)o3)o2)cc1OC	-0.165
COc1ccc(Br)cc1/C=N/NC(=O)C(c1ccncc1)N1CCOCC1 (stereo not given)	0.378
O=C(NCCOc1ccccc1)c1cc2ccccc2o1	-0.0733
COc1ccccc1NC(=O)Cc1cccs1	-0.045
COc1ccccc1OCc1ccc(C(=O)N(C)C)o1	-0.882
CCC(=O)N1CCN=C1SCc1ccc(F)cc1	-0.439
CCOC(=O)c1nn(-c2ccccc2)c2nc(-c3ccc(OC)cc3)c(C#N)c(=O)n12	-0.335
Cc1ccc(C(C(=O)NC2CCCCC2)N2CCN(C(=O)c3ccco3)CC2)cc1 (stereo not given)	-0.139
CCCCCC(=O)N/N=C/c1ccc([N+](=O)[O-])o1	0.0192
Cc1ccc(C)c(NC(=S)NCc2ccc3c(c2)OCO3)c1	-1.94
Nc1ccc(C(=O)n2c3ccccc3c3ccccc32)cc1	-0.888
CCn1c(Cc2c(C)[nH]c3ccccc23)n[nH]c1=S	0.266
CCC(C)n1c(-c2cc(OC)c(OC)c(OC)c2)nc2nc3ccccc3nc21 (stereo not given)	-1.11
CCOC(=O)c1cc(OC(=O)c2ccccc2Br)n(-c2ccccc2)n1	-0.0255
COC(=O)c1ccc(C(C(=O)NC2CCCCC2)N(Cc2ccccc2)C(=O)Cc2cccs2)cc1 (stereo not given)	-0.276
COc1ccc(NC(=O)c2ccco2)cc1NC(=O)c1ccc(Br)o1	-0.82
